US7592458B2, “Dermal anesthetic compounds and pharmaceutical compositions for inducing local anesthesia and mitigating neuropathic pain” (priority 2006, dated 2009)

Target: Sodium Channels (Site 2)
Assay type: binding
Details: 10 nM [3H]batrachotoxinin, 60 min, 22° C.

| Structure (SMILES) | pKi | pIC50 |
| --- | --- | --- |
| CCCCN1CCCCC1CCN(c1ccccc1)C1CCc2ccccc2C1 (centres unmarked) [Bu-CLAC-34•HCl] | 6.96 | – |
| c1ccc(N(CCC2CCCCN2)C2CCc3ccccc3C2)cc1 (centres unmarked) [CLAC-34•HCl] | 6.74 | 6.70 |
| CCCN(CCC)CCN(c1ccccc1)C1CCc2ccccc2C1 (centres unmarked) [CLAC-PP•HCl] | 6.66 | 6.60 |

pIC50, pKi: −log10 of the molar value. Where a name gives a salt, the structure may show the parent alone.
